The BET-seq Pho4 binding data (Le et al. 2018)
The other results are listed elsewhere or left out. Values were computed here from the reads of four pooled replicates and scatter widely.

Molecular target: T1, Pho4 (S. cerevisiae) (UniProt P07270)
T1 sequence: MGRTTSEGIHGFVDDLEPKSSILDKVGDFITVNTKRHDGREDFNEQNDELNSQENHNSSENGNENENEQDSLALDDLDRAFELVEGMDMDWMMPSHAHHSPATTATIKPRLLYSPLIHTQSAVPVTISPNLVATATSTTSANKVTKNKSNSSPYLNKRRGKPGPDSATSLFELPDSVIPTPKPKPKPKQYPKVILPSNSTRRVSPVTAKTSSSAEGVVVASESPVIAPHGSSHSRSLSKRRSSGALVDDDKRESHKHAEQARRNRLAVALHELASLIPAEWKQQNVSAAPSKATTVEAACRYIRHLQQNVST
Assay: relative binding free energy (BET-seq); higher = weaker binding
Settings: reference: library average

Row | Sequence | relative binding free energy
1 | GTAGACACGTGAGGTT | 0.19 kcal/mol
2 | GACATCACGTGTTGTT | 0.15 kcal/mol
3 | AGGTTCACGTGGCCTG | 0.07 kcal/mol
4 | ATAGTCACGTGTCTTT | 0.21 kcal/mol
5 | GTTTGCACGTGAGCTG | 0.18 kcal/mol
6 | AATAGCACGTGAATAG | 0.32 kcal/mol
7 | ATGTCCACGTGGGCGT | -0.12 kcal/mol
8 | TCTATCACGTGTTTTA | 0.15 kcal/mol
9 | AGCTTCACGTGGGGTT | -0.04 kcal/mol
10 | GGCAGCACGTGGGTTT | -0.16 kcal/mol
11 | TGCTGCACGTGATGGC | 0.08 kcal/mol
12 | TGAAGCACGTGGGTAT | -0.25 kcal/mol
13 | AAGTTCACGTGTTGGC | 0.22 kcal/mol
14 | TTTCTCACGTGATGGT | 0.26 kcal/mol
15 | ATGGACACGTGGTGTC | -0.01 kcal/mol
16 | GAGTTCACGTGTGACG | 0.45 kcal/mol
17 | TGGATCACGTGGGTAG | 0.1 kcal/mol
18 | GGTAGCACGTGGATCT | 0.01 kcal/mol
19 | TTGCGCACGTGAATTT | 0.31 kcal/mol
20 | ATGGACACGTGGGCGA | -0.04 kcal/mol
21 | GTGTACACGTGGTACG | 0.05 kcal/mol
22 | TCAATCACGTGGTGTT | 0.17 kcal/mol
23 | ACTGTCACGTGGAGTT | 0.15 kcal/mol

Row | Sequence | relative binding free energy
24 | ATGCACACGTGGTGGT | -0.01 kcal/mol
25 | GTTCGCACGTGTGGTA | 0.08 kcal/mol
26 | TGGAGCACGTGGTCTT | -0.15 kcal/mol
27 | TTGGGCACGTGTTCCG | -0.06 kcal/mol
28 | TGTATCACGTGTACGG | 0.11 kcal/mol
29 | TCTGTCACGTGCAGGT | 0.12 kcal/mol
30 | TTTATCACGTGTGCTT | 0.24 kcal/mol
31 | GGAGACACGTGGGCGA | -0.03 kcal/mol
32 | GGCTGCACGTGTCTTG | -0.01 kcal/mol
33 | TTAGACACGTGGGTAG | -0.01 kcal/mol
34 | CTTTTCACGTGACAGG | 0.52 kcal/mol
35 | TTGGTCACGTGTGGTG | 0.08 kcal/mol
36 | TTTGGCACGTGTGGAG | -0.03 kcal/mol
37 | AATTGCACGTGTAGGC | 0.03 kcal/mol
38 | GTGGTCACGTGTTTGA | 0.15 kcal/mol
39 | CTTTTCACGTGGATTG | 0.22 kcal/mol
40 | AAGCGCACGTGATGGG | -0.06 kcal/mol
41 | CTGTGCACGTGGTAGC | -0.11 kcal/mol
42 | TGACGCACGTGGTTTG | -0.3 kcal/mol
43 | GGTCTCACGTGGAGGA | 0.14 kcal/mol
44 | TCAAGCACGTGTGGTA | -0.13 kcal/mol
45 | TATATCACGTGAGGCT | 0.23 kcal/mol
46 | AGGAGCACGTGTGGAT | -0.1 kcal/mol

Row | Sequence | relative binding free energy
47 | TTGTGCACGTGGTTAA | -0.13 kcal/mol
48 | CATAGCACGTGATGTG | -0.03 kcal/mol
49 | AAGTACACGTGGAGTA | 0.13 kcal/mol
50 | TATGTCACGTGTTATA | 0.19 kcal/mol
51 | GCTTGCACGTGGAGGC | 0.14 kcal/mol
52 | ATACTCACGTGTTTGG | 0.16 kcal/mol
53 | AGGTTCACGTGTGCTA | 0.16 kcal/mol
54 | TTTGGCACGTGTCCGA | -0.11 kcal/mol
55 | CGTATCACGTGTGAGG | 0.2 kcal/mol
56 | TAGGACACGTGTAAGG | 0.21 kcal/mol
57 | AGTGGCACGTGAGAAT | 0.12 kcal/mol
58 | AGTGGCACGTGGGGTA | -0.3 kcal/mol
59 | TTGGACACGTGGCACG | -0.01 kcal/mol
60 | AAACGCACGTGTTGGG | -0.19 kcal/mol
61 | AAATTCACGTGGTCAG | 0.26 kcal/mol
62 | AAAGTCACGTGGAGGT | 0.21 kcal/mol
63 | CAATGCACGTGGAGAG | 0.18 kcal/mol
64 | TGGGTCACGTGTCGCA | -0.01 kcal/mol
65 | TGTCCCACGTGTTTGT | -0.04 kcal/mol
66 | TTTTGCACGTGGATGA | 0 kcal/mol
67 | TCTAGCACGTGAAGGT | 0.13 kcal/mol
68 | GAGCGCACGTGTGTGT | -0.1 kcal/mol
69 | AAGTTCACGTGTTAAG | 0.24 kcal/mol

Row | Sequence | relative binding free energy
70 | TATTACACGTGGCGAT | 0.17 kcal/mol
71 | TGCATCACGTGTTTGT | 0.07 kcal/mol
72 | TGGCGCACGTGTGATT | -0.01 kcal/mol
73 | GGTTTCACGTGTCGAG | 0.29 kcal/mol
74 | TGAGACACGTGAGAGT | 0.09 kcal/mol
75 | TCATGCACGTGGGATA | -0.07 kcal/mol
76 | GGTTTCACGTGCGAGG | 0.34 kcal/mol
77 | TGGTTCACGTGGGCAT | 0.13 kcal/mol
78 | GGCTACACGTGTGGTA | 0.04 kcal/mol
79 | TTCATCACGTGAGGAT | 0.44 kcal/mol
80 | TTGGCCACGTGGATTT | 0.06 kcal/mol
81 | ATATACACGTGGAGTG | -0.06 kcal/mol
82 | TAGCGCACGTGTGGGG | -0.11 kcal/mol
83 | GATGGCACGTGATTGT | 0.2 kcal/mol
84 | ATAGACACGTGGTATT | -0.12 kcal/mol
85 | GGTGTCACGTGAATCT | 0.37 kcal/mol
86 | GGTAGCACGTGTTTCG | 0 kcal/mol
87 | CTAGTCACGTGAGGCG | 0.43 kcal/mol
88 | GGTGTCACGTGTTATG | 0.19 kcal/mol
89 | TGTAGCACGTGGCGGT | -0.12 kcal/mol
90 | GGATTCACGTGATTTG | 0.58 kcal/mol
91 | ATAGTCACGTGTATTT | 0.19 kcal/mol
92 | TGGTTCACGTGGATTA | 0.27 kcal/mol

Row | Sequence | relative binding free energy
93 | AGGTTCACGTGCGAAG | 0.18 kcal/mol
94 | GGGGACACGTGAAGCG | 0.3 kcal/mol
95 | GGGCTCACGTGTTGGT | 0.37 kcal/mol
96 | TATGTCACGTGTATCG | 0.04 kcal/mol
97 | ATAGTCACGTGTACGG | 0.1 kcal/mol
98 | AGTTACACGTGAGGAT | 0.31 kcal/mol
99 | TTGCTCACGTGGAGTA | 0.3 kcal/mol
100 | GGGGTCACGTGCGATG | 0.2 kcal/mol
101 | GGTAGCACGTGTAGCA | -0.02 kcal/mol
102 | ATCGGCACGTGAATGG | 0.1 kcal/mol
103 | CGGGACACGTGGGCGA | -0.12 kcal/mol
104 | TACGGCACGTGAGATG | 0.26 kcal/mol
105 | CGTAGCACGTGAATGG | 0.15 kcal/mol
106 | TTATGCACGTGCTGAA | -0.13 kcal/mol
107 | GCAAGCACGTGTCGGG | 0.05 kcal/mol
108 | TCATGCACGTGTAGTT | 0.04 kcal/mol
109 | TTTTTCACGTGGGTCA | 0.23 kcal/mol
110 | GTGTCCACGTGGTATT | -0.06 kcal/mol
111 | GAAGGCACGTGTTCGG | -0.05 kcal/mol
112 | AGGTGCACGTGCTGGC | 0.11 kcal/mol
113 | GTGTGCACGTGGAGGG | 0.01 kcal/mol
114 | AGTGACACGTGCGTTG | 0.04 kcal/mol
115 | TGCTGCACGTGTGAGC | 0.18 kcal/mol
